# Assay results: paper PMC8632923
# The chains behind the UniProt entries cited, without tags or fusion partners. Where a name states a change or a piece, a line headed by the entry shows the natural chain unless it says otherwise. Residues count along the entry.
# UniProt Q9Y3D6: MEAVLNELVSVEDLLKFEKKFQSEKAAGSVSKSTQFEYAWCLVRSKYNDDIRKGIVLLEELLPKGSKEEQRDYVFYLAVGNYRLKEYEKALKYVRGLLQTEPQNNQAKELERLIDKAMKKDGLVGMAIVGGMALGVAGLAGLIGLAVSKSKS
# UniProt P08581, residues 25-1390: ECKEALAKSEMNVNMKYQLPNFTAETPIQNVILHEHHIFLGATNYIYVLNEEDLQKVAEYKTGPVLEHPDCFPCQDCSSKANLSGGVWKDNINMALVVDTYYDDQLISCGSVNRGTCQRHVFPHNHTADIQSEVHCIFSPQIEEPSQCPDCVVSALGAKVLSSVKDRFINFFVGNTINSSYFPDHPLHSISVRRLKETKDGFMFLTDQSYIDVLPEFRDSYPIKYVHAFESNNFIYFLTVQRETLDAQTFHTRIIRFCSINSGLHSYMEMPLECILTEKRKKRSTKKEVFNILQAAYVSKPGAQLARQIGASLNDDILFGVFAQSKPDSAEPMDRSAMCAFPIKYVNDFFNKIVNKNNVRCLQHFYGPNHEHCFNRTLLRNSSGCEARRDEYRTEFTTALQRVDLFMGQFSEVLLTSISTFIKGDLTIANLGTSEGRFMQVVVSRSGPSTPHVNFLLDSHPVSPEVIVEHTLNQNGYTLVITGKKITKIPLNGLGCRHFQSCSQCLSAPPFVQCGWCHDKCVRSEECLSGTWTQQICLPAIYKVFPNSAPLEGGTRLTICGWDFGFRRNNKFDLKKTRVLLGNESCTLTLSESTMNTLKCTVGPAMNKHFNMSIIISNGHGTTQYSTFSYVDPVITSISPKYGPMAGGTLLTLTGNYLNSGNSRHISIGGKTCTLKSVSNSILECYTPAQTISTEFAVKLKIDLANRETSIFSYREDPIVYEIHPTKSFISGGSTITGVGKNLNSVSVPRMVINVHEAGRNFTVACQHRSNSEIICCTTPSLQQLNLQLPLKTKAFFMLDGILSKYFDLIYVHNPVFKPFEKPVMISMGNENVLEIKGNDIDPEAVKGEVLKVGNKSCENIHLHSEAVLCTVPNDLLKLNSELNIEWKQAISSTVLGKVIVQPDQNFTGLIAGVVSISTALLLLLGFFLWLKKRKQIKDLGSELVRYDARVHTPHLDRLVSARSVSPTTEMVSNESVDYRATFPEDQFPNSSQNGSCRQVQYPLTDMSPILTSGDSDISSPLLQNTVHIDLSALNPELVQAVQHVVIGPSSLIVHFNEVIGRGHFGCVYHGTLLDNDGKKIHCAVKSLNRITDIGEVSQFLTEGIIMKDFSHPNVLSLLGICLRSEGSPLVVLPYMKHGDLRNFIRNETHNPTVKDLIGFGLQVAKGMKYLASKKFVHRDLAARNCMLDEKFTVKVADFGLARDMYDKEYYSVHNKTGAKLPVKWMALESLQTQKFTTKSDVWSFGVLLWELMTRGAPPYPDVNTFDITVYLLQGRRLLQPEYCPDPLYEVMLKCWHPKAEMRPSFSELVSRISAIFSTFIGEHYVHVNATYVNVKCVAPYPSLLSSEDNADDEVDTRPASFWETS
# UniProt O00429: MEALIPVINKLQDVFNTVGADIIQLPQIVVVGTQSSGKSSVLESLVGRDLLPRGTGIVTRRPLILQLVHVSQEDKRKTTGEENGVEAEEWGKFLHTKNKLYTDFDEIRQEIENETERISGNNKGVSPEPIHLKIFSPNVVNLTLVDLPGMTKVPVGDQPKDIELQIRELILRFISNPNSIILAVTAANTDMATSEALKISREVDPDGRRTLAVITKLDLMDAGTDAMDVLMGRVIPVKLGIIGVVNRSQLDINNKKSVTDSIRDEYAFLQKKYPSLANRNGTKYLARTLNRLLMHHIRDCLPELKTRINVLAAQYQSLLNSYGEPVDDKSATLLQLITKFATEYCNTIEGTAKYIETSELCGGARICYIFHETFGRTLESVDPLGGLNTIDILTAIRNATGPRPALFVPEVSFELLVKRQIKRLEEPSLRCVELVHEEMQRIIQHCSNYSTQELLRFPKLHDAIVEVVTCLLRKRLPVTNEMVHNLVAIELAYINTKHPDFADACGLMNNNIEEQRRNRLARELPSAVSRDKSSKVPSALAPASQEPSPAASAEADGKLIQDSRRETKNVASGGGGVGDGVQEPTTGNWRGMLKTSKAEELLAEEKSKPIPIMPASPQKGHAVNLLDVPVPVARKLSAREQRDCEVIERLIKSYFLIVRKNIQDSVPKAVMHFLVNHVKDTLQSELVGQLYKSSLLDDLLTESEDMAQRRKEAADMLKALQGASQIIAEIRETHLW
# UniProt Q9NQG6: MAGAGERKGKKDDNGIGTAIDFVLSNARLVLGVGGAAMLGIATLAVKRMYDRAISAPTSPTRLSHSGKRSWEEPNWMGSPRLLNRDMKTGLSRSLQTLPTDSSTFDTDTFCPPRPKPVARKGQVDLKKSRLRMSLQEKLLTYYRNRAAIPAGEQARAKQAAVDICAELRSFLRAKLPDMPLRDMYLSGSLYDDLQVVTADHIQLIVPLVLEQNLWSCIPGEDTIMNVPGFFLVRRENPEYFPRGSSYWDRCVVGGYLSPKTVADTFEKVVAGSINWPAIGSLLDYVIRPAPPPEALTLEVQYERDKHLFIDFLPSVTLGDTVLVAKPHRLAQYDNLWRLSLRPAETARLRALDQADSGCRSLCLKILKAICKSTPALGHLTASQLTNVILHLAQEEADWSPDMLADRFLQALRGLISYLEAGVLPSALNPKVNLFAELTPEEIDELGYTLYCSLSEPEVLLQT
# Results are given in words; binding and its absence hold for the method and conditions named. For part of these data: Binding seen in cells or lysates may run through a third protein. Some entries that bind do so weakly or less than the wild type.
# Tests used:
# [1] = target: Fis1-Flag Y87F (PCDH-Fis1-Flag-Y87F) (human) (UniProt Q9Y3D6); test: co-IP; Fis1−/− Huh7 cells transiently transfected with WT Fis1-Flag or Flag-tagged mutants; IP with anti-Flag antibody
# [2] = target: WT Fis1-Flag (PCDH-Fis1-Flag) (human) (UniProt Q9Y3D6); test: as above
# [3] = target: Fis1-Flag Y38E (PCDH-Fis1-Flag-Y38E) (human) (UniProt Q9Y3D6); test: as above
# [4] = target: Fis1-Flag Y38F (PCDH-Fis1-Flag-Y38F) (human) (UniProt Q9Y3D6); test: as above
# [5] = target: Fis1-Flag Y87E (PCDH-Fis1-Flag-Y87E) (human) (UniProt Q9Y3D6); test: as above
# [6] = target: Fis1 (endogenous) (human (endogenous in Huh7)) (UniProt Q9Y3D6); test: co-IP; endogenous proteins in Huh7 lysate; IP with anti-Fis1 antibody (HGF, crizotinib or ARQ-197 treated cells) or with anti-Drp1 antibody (Met knockout cells and control)
# [7] = target: exogenous Met (human) (UniProt P08581); test: co-IP; exogenous Met in Huh7 cells, with or without HGF (Supplementary Fig. S2f)
# [8] = target: WT Fis1-Flag (PCDH-Fis1-Flag) (human) (UniProt Q9Y3D6); test: pull-down; in vitro pull-down: WT or Y38F Fis1 immunoprecipitated with Flag beads from Huh7 cell lysates, incubated with Drp1 recombinant protein, Western blot; both purified
# [9] = target: ECFP-Fis1 WT (human) (UniProt Q9Y3D6); test: FRET or BRET; sensitized emission FRET (SE-FRET) between ECFP-Fis1 and mCherry-Drp1 in transfected, fixed HeLa cells, confocal microscope; cells with or without HGF, crizotinib, ARQ-197 or SU11274
# [10] = target: ECFP-Fis1 Y38F (human) (UniProt Q9Y3D6); test: as above
# [11] = target: ECFP-Fis1 Y38E (human) (UniProt Q9Y3D6); test: as above
substance,measurement,setting,value
Drp1 (endogenous) (from UniProt O00429 1-736) (enzyme),binding,[1],binds
same,binding,[2],binds
same,binding,[3],binds
same,binding,[4],binds weakly
same,binding,[5],binds
same,binding,[6],binds
same,binding,[7],binds weakly
Drp1 recombinant protein (from UniProt O00429 1-736) (enzyme),binding,[8],binds
Mid51 (from UniProt Q9NQG6 1-463),binding,[7],no binding
mCherry-Drp1 (from UniProt O00429 1-736) (enzyme),binding,[9],binds
same,binding,[10],binds weakly
same,binding,[11],binds
